# According to PMC12475165 (Nature Communications, 2025):
# Protein sequences, listed by entry. Tags and fused reporters are not part of them.
# UniProt Q05127: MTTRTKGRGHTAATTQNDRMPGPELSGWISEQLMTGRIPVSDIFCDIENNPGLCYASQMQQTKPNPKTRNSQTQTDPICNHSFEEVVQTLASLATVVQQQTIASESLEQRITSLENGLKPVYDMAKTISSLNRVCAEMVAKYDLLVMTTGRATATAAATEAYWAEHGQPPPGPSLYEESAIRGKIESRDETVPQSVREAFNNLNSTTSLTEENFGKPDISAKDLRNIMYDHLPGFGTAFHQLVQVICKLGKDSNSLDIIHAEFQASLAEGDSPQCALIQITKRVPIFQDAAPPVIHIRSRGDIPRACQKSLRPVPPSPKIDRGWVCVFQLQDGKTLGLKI
# These are yes or no findings as the source states them, for the method shown. In cells and extracts the contact can be indirect. Some binding calls cover weakened binding; strength is not graded here. For some of these results: Where a sequence is shown, tags or fusion partners need not be part of it.
# Assays:
# Experiment in all cases: co-IP
# [1] = target: T1, HA-tagged full-length EDC4 (residues 1-1401) (UniProt Q6P2E9)
# T1 sequence: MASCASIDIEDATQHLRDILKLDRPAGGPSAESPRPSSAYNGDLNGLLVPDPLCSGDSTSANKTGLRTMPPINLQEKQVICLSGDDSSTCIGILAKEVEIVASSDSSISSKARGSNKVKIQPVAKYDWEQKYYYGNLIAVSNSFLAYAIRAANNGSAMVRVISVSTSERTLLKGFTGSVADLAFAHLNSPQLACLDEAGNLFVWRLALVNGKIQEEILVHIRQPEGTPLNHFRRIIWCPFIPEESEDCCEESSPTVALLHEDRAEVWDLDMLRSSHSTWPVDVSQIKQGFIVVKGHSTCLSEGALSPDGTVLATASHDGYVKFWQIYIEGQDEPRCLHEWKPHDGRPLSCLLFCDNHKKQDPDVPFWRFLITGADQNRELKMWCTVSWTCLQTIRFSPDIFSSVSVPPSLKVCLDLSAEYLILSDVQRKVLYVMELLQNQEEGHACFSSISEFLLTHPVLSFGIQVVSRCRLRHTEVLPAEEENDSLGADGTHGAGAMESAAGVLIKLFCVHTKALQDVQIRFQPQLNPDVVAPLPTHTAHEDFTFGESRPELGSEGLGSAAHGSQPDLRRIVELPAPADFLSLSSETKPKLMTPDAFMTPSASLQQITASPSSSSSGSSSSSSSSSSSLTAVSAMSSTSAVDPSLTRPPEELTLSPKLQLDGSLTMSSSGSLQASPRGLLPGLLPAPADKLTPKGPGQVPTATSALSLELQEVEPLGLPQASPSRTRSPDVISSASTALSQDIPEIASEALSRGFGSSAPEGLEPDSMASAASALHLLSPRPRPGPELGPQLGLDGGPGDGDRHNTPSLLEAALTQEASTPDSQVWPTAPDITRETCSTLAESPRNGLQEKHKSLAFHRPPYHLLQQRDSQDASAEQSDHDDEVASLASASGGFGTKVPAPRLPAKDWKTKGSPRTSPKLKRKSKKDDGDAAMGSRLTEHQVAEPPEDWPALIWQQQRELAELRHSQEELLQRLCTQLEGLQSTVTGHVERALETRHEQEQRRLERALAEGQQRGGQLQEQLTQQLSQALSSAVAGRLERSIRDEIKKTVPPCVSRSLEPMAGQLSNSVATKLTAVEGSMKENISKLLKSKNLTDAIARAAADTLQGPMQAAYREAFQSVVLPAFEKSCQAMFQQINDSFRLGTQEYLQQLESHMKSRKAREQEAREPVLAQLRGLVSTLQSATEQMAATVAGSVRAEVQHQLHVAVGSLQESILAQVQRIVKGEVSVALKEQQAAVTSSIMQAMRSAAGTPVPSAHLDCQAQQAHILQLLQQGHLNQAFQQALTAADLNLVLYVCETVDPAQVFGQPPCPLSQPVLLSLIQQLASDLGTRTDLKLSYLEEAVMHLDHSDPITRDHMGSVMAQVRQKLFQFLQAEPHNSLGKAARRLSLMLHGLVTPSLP
# HA-tagged DCP1B = target: T2, HA-tagged DCP1B (UniProt Q8IZD4)
# T2 sequence: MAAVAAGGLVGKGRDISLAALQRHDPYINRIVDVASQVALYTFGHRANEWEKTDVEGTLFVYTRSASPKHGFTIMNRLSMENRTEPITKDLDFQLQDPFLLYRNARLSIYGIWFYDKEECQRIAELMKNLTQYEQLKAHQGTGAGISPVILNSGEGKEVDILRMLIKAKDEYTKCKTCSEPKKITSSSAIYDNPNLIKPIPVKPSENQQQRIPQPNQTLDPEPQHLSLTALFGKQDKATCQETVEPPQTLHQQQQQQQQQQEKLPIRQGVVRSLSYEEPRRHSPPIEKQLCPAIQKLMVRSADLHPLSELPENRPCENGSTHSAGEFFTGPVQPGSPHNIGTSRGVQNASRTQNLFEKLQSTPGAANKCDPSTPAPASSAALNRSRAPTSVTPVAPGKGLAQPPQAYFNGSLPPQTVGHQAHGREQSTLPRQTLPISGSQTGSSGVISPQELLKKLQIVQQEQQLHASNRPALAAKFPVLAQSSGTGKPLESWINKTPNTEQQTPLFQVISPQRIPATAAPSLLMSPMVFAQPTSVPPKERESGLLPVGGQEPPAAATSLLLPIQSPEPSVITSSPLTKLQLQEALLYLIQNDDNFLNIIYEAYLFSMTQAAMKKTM
# HA-tagged DCP2 = HA-tagged DCP2 (UniProt Q8IU60)
# [2] = target: HA-tagged EDC4 flexible linker and C-terminal alpha-helical domain (residues 538-1401) (UniProt Q6P2E9)
# HA-tagged DCP1A = target: T3, HA-tagged DCP1A (UniProt Q9NPI6)
# T3 sequence: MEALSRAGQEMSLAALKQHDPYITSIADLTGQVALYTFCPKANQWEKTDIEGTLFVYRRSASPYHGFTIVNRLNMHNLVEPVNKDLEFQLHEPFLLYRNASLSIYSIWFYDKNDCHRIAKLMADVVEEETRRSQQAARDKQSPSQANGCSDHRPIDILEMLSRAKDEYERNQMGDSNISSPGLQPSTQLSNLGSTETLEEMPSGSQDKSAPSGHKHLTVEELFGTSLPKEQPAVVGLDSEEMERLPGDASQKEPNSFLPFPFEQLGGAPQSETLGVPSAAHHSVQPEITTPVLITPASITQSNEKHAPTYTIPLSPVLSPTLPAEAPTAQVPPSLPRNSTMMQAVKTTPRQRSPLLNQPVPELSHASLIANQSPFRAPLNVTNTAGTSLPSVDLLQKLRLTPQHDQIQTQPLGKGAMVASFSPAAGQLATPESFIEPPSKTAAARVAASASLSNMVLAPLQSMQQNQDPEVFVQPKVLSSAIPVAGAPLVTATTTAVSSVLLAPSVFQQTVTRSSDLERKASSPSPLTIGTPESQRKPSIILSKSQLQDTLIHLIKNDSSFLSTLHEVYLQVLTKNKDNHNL
# HA-tagged EDC3 = target: T4, HA-tagged EDC3 (UniProt Q96F86)
# T4 sequence: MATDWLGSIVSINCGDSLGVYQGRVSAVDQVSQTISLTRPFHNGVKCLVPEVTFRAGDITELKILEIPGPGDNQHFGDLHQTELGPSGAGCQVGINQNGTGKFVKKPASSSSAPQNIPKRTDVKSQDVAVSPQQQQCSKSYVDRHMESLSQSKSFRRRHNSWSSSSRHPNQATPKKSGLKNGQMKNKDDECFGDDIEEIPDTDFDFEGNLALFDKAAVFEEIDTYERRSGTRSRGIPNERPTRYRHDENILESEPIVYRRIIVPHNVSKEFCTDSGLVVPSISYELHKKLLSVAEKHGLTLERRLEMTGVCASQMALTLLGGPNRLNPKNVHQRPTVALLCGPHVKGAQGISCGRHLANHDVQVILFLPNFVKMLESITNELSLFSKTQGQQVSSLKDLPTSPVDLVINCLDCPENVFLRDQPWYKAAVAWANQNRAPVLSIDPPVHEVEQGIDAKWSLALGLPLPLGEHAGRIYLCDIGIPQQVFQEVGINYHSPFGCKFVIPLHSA
# [3] = target: FLAG-tagged VP35 (Ebola virus (EBOV)) (UniProt Q05127)
Molecule,binding [1],binding (HA-tagged DCP1B),binding (HA-tagged DCP2),binding [2],binding (HA-tagged DCP1A),binding (HA-tagged EDC3),binding [3]
FLAG-tagged VP35 (from UniProt Q05127 1-340),binds,no binding,no binding,binds,no binding,no binding,
"HA-tagged full-length EDC4 (residues 1-1401) (protein, UniProt Q6P2E9 1-1401) MASCASIDIEDATQHLRDILKLDRPAGGPSAESPRPSSAYNGDLNGLLVPDPLCSGDSTSANKTGLRTMPPINLQEKQVICLSGDDSSTCIGILAKEVEIVASSDSSISSKARGSNKVKIQPVAKYDWEQKYYYGNLIAVSNSFLAYAIRAANNGSAMVRVISVSTSERTLLKGFTGSVADLAFAHLNSPQLACLDEAGNLFVWRLALVNGKIQEEILVHIRQPEGTPLNHFRRIIWCPFIPEESEDCCEESSPTVALLHEDRAEVWDLDMLRSSHSTWPVDVSQIKQGFIVVKGHSTCLSEGALSPDGTVLATASHDGYVKFWQIYIEGQDEPRCLHEWKPHDGRPLSCLLFCDNHKKQDPDVPFWRFLITGADQNRELKMWCTVSWTCLQTIRFSPDIFSSVSVPPSLKVCLDLSAEYLILSDVQRKVLYVMELLQNQEEGHACFSSISEFLLTHPVLSFGIQVVSRCRLRHTEVLPAEEENDSLGADGTHGAGAMESAAGVLIKLFCVHTKALQDVQIRFQPQLNPDVVAPLPTHTAHEDFTFGESRPELGSEGLGSAAHGSQPDLRRIVELPAPADFLSLSSETKPKLMTPDAFMTPSASLQQITASPSSSSSGSSSSSSSSSSSLTAVSAMSSTSAVDPSLTRPPEELTLSPKLQLDGSLTMSSSGSLQASPRGLLPGLLPAPADKLTPKGPGQVPTATSALSLELQEVEPLGLPQASPSRTRSPDVISSASTALSQDIPEIASEALSRGFGSSAPEGLEPDSMASAASALHLLSPRPRPGPELGPQLGLDGGPGDGDRHNTPSLLEAALTQEASTPDSQVWPTAPDITRETCSTLAESPRNGLQEKHKSLAFHRPPYHLLQQRDSQDASAEQSDHDDEVASLASASGGFGTKVPAPRLPAKDWKTKGSPRTSPKLKRKSKKDDGDAAMGSRLTEHQVAEPPEDWPALIWQQQRELAELRHSQEELLQRLCTQLEGLQSTVTGHVERALETRHEQEQRRLERALAEGQQRGGQLQEQLTQQLSQALSSAVAGRLERSIRDEIKKTVPPCVSRSLEPMAGQLSNSVATKLTAVEGSMKENISKLLKSKNLTDAIARAAADTLQGPMQAAYREAFQSVVLPAFEKSCQAMFQQINDSFRLGTQEYLQQLESHMKSRKAREQEAREPVLAQLRGLVSTLQSATEQMAATVAGSVRAEVQHQLHVAVGSLQESILAQVQRIVKGEVSVALKEQQAAVTSSIMQAMRSAAGTPVPSAHLDCQAQQAHILQLLQQGHLNQAFQQALTAADLNLVLYVCETVDPAQVFGQPPCPLSQPVLLSLIQQLASDLGTRTDLKLSYLEEAVMHLDHSDPITRDHMGSVMAQVRQKLFQFLQAEPHNSLGKAARRLSLMLHGLVTPSLP",,,,,,,binds
